Reference: paper PMC4336329 (PLoS ONE, 2015)
In all, about 310,000 compounds went through this assay and about 14,000 (4.5%) showed an effect of 50% or more. Effects have a minus sign here. The list shows a part of the results.

Molecular target: human ether-à-go-go-related gene (hERG) potassium channel (human, UniProt Q12809)
Assay: primary screen, population patch clamp on CHO cells stably expressing hERG
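Also: peak tail current of the secondary pulse compared with the same well before compound.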

Chain of human ether-à-go-go-related gene (hERG) potassium channel (Q12809 whole entry, looked up): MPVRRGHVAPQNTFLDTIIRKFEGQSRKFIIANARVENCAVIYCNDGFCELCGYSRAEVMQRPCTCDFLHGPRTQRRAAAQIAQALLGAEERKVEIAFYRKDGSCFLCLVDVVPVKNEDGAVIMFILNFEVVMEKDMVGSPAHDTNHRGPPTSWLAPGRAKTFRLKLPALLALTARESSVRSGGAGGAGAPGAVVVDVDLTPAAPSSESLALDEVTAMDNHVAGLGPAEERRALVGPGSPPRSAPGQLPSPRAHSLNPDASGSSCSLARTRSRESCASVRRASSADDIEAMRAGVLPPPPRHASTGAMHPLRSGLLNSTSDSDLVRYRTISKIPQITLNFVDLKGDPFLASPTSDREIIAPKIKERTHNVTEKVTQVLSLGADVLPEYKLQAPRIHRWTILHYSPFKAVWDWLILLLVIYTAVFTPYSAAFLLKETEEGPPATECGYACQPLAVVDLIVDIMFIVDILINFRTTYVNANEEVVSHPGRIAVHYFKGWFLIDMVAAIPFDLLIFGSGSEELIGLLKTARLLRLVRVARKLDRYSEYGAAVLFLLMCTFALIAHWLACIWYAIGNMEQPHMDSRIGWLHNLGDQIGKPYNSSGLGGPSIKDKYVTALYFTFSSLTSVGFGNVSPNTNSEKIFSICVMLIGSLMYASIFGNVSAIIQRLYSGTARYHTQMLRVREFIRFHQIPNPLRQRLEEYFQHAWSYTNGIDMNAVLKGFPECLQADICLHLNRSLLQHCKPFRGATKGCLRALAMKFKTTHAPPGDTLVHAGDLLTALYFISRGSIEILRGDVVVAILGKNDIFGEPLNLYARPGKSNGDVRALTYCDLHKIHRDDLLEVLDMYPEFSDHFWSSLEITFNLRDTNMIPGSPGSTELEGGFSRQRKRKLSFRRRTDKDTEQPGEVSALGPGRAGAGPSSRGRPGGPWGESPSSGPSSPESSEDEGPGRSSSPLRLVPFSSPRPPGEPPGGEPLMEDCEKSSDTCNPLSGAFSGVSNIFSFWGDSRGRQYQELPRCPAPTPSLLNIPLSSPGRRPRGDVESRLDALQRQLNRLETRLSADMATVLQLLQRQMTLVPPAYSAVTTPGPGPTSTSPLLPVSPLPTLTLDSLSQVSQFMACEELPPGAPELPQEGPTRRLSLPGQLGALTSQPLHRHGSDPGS

Row | SMILES | hERG current change (%, negative = inhibition) at 10uM [%]
1 | CCn1cc(S(=O)(=O)CC(=O)Nc2ccc(OC)cc2)c2ccccc21 | 3.79
2 | O=C(Nc1ccccc1C(=O)OCc1nnc(-c2ccccc2)o1)c1ccco1 | -36.6
3 | Cc1ccc(CN(C(=O)c2ccco2)C2CCS(=O)(=O)C2)cc1 (centres unmarked) | -7.1
4 | Cc1c(C)c2ccc(OCC(=O)Nc3ccc(N4CCC(C)CC4)cc3)cc2oc1=O | 14.7
5 | CCOc1ccc(NC(c2ccccn2)c2oc(CO)cc(=O)c2O)cc1 (centres unmarked) | 5.43
6 | O=C(Cc1nc2ccccc2[nH]1)c1ccc(Cl)cc1 | -1.59
7 | CCCNc1cc(C)oc(=O)c1C(=O)CC | 14.5
8 | N#Cc1c(C(F)(F)F)cc(-c2ccco2)nc1SCc1ccncc1 | -5.81
9 | Cc1cc(=O)[nH]c(N/N=C/c2ccc(F)cc2)n1 | -8.55
10 | Cc1cc(C)n2c(=O)c3ccc(Cl)cc3nc2c1C#N | 0.487
11 | O=C(CCS(=O)(=O)Cc1ccccc1)N1CCN(c2ccccc2)CC1 | -7.79
12 | COc1ccc(-c2cc(CNS(=O)(=O)c3cc(OC)ccc3OC)on2)cc1 | 6.1
13 | COc1ccc(C)cc1S(=O)(=O)NC(C)C(=O)Nc1ccc2c(c1)OCO2 (centres unmarked) | 2.08
14 | Cc1ccc(-n2c(CNc3ccc(F)cc3)nnc2SCC(N)=O)cc1 | -32.1
15 | O=S(=O)(c1ccc(Br)s1)N1CCCCC1 | -4.03
16 | CCOc1ccc(N(CC(=O)NCCCOC)S(C)(=O)=O)cc1 | 4.53
17 | C=C(C)Cn1c(=O)c2c(nc3n2CCCN3CCc2ccccc2)n(C)c1=O | -73.3
18 | O=C(Nc1ccccc1)Nc1cccc2ccccc12 | 13.4
19 | CC1CCC(=O)N(CCOc2ccccc2)CC1 (centres unmarked) | -13.8
20 | COc1ccc(N2CCN(C(=S)Nc3ccc(F)cc3)CC2)cc1 | 16.3
21 | CC1CC(C)CN(S(=O)(=O)c2cccc3nonc23)C1 (centres unmarked) | 4.47
22 | COc1cc(C2C(C(C)=O)=C(O)C(=O)N2c2ccc(C)cc2)ccc1O (centres unmarked) | 17
23 | CC(C)NC(=O)NC(=O)CSc1nncn1C | -25.9
24 | C/C(=N\N=C1\NC(=O)C(CC(=O)Nc2ccccc2F)S1)C1CCCCC1 (centres unmarked) | -10.5
25 | CCCCn1c(SCc2cccnc2)nc2c1c(=O)n(C)c(=O)n2C | -28
26 | COc1ccc(C(C)(C)C)cc1NC(=O)COC(=O)C1=NNC(=O)CC1 | 5.4
